The source of these data is the supplement of paper PMC8821664.

Where a name gives a salt, the structure may show the parent alone. The list shows a part of the results. Many values rest on one well or one pass, so single values are uncertain.
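Note: monoclonal Beas-2B line stably carrying CMV promoter-driven AQP5-HiBiT, 5,000 cells per well in 384-well plates, lytic HiBiT plus LgBiT NanoLuc luminescence, FDA-approved drug library screen.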

In this test the test system is Beas-2B AQP5-HiBiT reporter cells. Put plainly: AQP5-HiBiT luminescence relative to vehicle (ratio to vehicle); higher = higher AQP5-HiBiT protein abundance. Conditions: 10 µM; 18 h. On the technique in general: HiBiT is a short tag that completes a luciferase, so light tracks the accessible tagged protein.
Consider `CC(=O)S[C@@H]1CC2=CC(=O)CC[C@]2(C)[C@H]2CC[C@@]3(C)[C@@H](CC[C@@]34CCC(=O)O4)[C@H]12` [Abbolactone], for which the AQP5-HiBiT luminescence was found to be 0.827.

For the compound `Clc1ccc(COC(Cn2ccnc2)c2ccc(Cl)cc2Cl)cc1` (stereo not given) [Econazole nitrate], the AQP5-HiBiT luminescence was found to be 0.47.

As to `C#C[C@]1(O)CC[C@H]2[C@@H]3CCc4cc(OC5CCCC5)ccc4[C@H]3CC[C@@]21C` [Quinestrol], the AQP5-HiBiT luminescence was 0.911.

With `NS(=O)(=O)c1cc(C(=O)O)c(NCc2ccco2)cc1Cl` [Furosemide], the AQP5-HiBiT luminescence was found to be 0.976.

`COc1cc(C)c(/C=C/C(C)=C/C=C/C(C)=C/C(=O)O)c(C)c1C` [Acitretin]: the AQP5-HiBiT luminescence is 0.916.

Take `Nc1nc(=O)n([C@@H]2CS[C@H](CO)O2)cc1F` [Emtricitabine]: the AQP5-HiBiT luminescence was determined as 0.851.

As to `Cn1ccnc1S` [Methimazole], the AQP5-HiBiT luminescence was 1.04.

As for `C[C@@H](c1nc(-c2ccc(C#N)cc2)cs1)[C@](O)(Cn1cncn1)c1cc(F)ccc1F` [Isavuconazole], the AQP5-HiBiT luminescence worked out at 0.693.

Take `CC(=O)O[C@H]1C[C@@H]2CC[C@@H]3[C@H](CC[C@@]4(C)[C@H]3C[C@H]([N+]3(C)CCCCC3)[C@@H]4OC(C)=O)[C@@]2(C)C[C@@H]1N1CCCCC1` [Vecuronium bromide]: the AQP5-HiBiT luminescence was 1.07.

`CCOC(=O)N[C@@H]1CC[C@@H]2[C@@H](C1)C[C@H]1C(=O)O[C@H](C)[C@H]1[C@H]2/C=C/c1ccc(-c2cccc(F)c2)cn1` [Vorapaxar sulfate]: the AQP5-HiBiT luminescence turned out to be 0.835.

As for `Clc1ccccc1C(c1ccccc1)(c1ccccc1)n1ccnc1` [Clotrimazole], the AQP5-HiBiT luminescence was 1.01.

Take `NNc1nncc2ccccc12` [Hydralazine hydrochloride]: the AQP5-HiBiT luminescence was 0.925.

Regarding `O=C1CCc2ccc(OCCCCN3CCN(c4cccc(Cl)c4Cl)CC3)cc2N1` [Aripiprazole], the AQP5-HiBiT luminescence amounted to 2.43.

For the compound `COC(=O)c1ccc2c(c1)NC(=O)/C2=C(\Nc1ccc(N(C)C(=O)CN2CCN(C)CC2)cc1)c1ccccc1` [Nintedanib (BIBF 1120)], the AQP5-HiBiT luminescence is 0.773.

In the case of `COc1cc([C@@H]2c3cc4c(cc3[C@@H](O[C@@H]3O[C@@H]5CO[C@@H](c6cccs6)O[C@H]5[C@H](O)[C@H]3O)[C@H]3COC(=O)[C@H]23)OCO4)cc(OC)c1O` [Teniposide], the AQP5-HiBiT luminescence is 0.582.

Consider `O=C1OCCN1/N=C/c1ccc([N+](=O)[O-])o1` [Furazolidone], for which the AQP5-HiBiT luminescence was 1.13.

As for `CC(C)c1nc(CN(C)C(=O)N[C@H](C(=O)N[C@@H](Cc2ccccc2)C[C@H](O)[C@H](Cc2ccccc2)NC(=O)OCc2cncs2)C(C)C)cs1` [Ritonavir], the AQP5-HiBiT luminescence was determined as 0.807.

With `COC(=O)/C=C/C(=O)OC` [Dimethyl fumarate], the AQP5-HiBiT luminescence was found to be 1.1.

Consider `O=c1cc[nH]c(=O)[nH]1` [Uracil], for which the AQP5-HiBiT luminescence came to 0.621.

For `C[N+](C)(C)CC(=O)O` [Betaine], the AQP5-HiBiT luminescence came to 0.807.

For `Cn1c(=O)c2nc[nH]c2n(C)c1=O` [Theophylline monohydrate], the AQP5-HiBiT luminescence amounted to 0.676.

`CCc1c2c(nc3ccc(OC(=O)N4CCC(N5CCCCC5)CC4)cc13)-c1cc3c(c(=O)n1C2)COC(=O)[C@]3(O)CC` [Irinotecan Hydrochloride]: the AQP5-HiBiT luminescence was 0.701.

Consider `Clc1ccc2c(c1)C(N1CCNCC1)=Nc1ccccc1O2` [Amoxapine], for which the AQP5-HiBiT luminescence came out at 1.4.

As for `CC(C)(C)C(=O)OCOP(=O)(COCCn1cnc2c(N)ncnc21)OCOC(=O)C(C)(C)C` [Adefovir dipivoxil], the AQP5-HiBiT luminescence was 1.05.

`C[C@]12C=CC(=O)C=C1CC[C@@H]1[C@@H]2[C@@H](O)C[C@@]2(C)[C@H]1CC[C@]2(O)C(=O)COP(=O)(O)O` [Prednisolone phosphate sodium]: the AQP5-HiBiT luminescence was found to be 0.786.

In the case of `C/C(=C\C(=O)OCCCCCCCCC(=O)O)C[C@@H]1OC[C@H](C[C@@H]2O[C@H]2[C@@H](C)[C@H](C)O)[C@@H](O)[C@H]1O` [Mupirocin], the AQP5-HiBiT luminescence was determined as 1.22.

In the case of `CC1=CC(=O)c2ccccc2C1=O` [Menadione], the AQP5-HiBiT luminescence was determined as 1.12.

For `OCCOCCN1CCN(C(c2ccccc2)c2ccc(Cl)cc2)CC1` (stereo not given) [Hydroxyzine Pamoate], the AQP5-HiBiT luminescence was 1.47.

Take `CCCN[C@H]1CCc2nc(N)sc2C1` [Pramipexole]: the AQP5-HiBiT luminescence came to 0.75.

`C=C1c2cccc(O)c2C(=O)C2=C(O)[C@]3(O)C(=O)C(C(N)=O)=C(O)[C@@H](N(C)C)[C@@H]3[C@@H](O)[C@H]12` [Methacycline hydrochloride]: the AQP5-HiBiT luminescence came to 0.608.

Take `CN(C)CCC[C@@]1(c2ccc(F)cc2)OCc2cc(C#N)ccc21` [Escitalopram]: the AQP5-HiBiT luminescence stood at 1.2.

Consider `N[C@@H](Cc1ccc(O)c(O)c1)C(=O)O` [Levodopa], for which the AQP5-HiBiT luminescence is 0.727.

For `CN(C)CCC(c1ccc(Br)cc1)c1ccccn1` (stereo not given) [Brompheniramine hydrogen maleate], the AQP5-HiBiT luminescence amounted to 1.41.

With `CC(=O)OCC(=O)[C@@]12OC3(CCCC3)O[C@@H]1C[C@H]1[C@@H]3CCC4=CC(=O)C=C[C@]4(C)[C@@]3(F)[C@@H](O)C[C@@]12C` [Amcinonide], the AQP5-HiBiT luminescence was found to be 0.874.

For the compound `CN(C)CCc1c[nH]c2ccc(CS(=O)(=O)N3CCCC3)cc12` [Almotriptan Malate], the AQP5-HiBiT luminescence is 0.631.

As to `Clc1ccc(CCC(Cn2ccnc2)Sc2c(Cl)cccc2Cl)cc1` (stereo not given) [Butoconazole nitrate], the AQP5-HiBiT luminescence is 0.887.

Take `C[C@H](O)C(=O)Nc1c(I)c(C(=O)NC(CO)CO)c(I)c(C(=O)NC(CO)CO)c1I` [Iopamidol]: the AQP5-HiBiT luminescence amounted to 0.989.

With `Nc1cc(N2CCCCC2)nc(N)[n+]1[O-]` [Minoxidil], the AQP5-HiBiT luminescence worked out at 0.819.

Regarding `CC1CNc2c(cccc2S(=O)(=O)N[C@@H](CCCNC(=N)N)C(=O)N2CC[C@@H](C)C[C@@H]2C(=O)O)C1` (stereo not given in full) [Argatroban], the AQP5-HiBiT luminescence came out at 0.822.

Regarding `CCN(CC)CC(=O)Nc1c(C)cccc1C` [Xylocaine], the AQP5-HiBiT luminescence was determined as 0.829.
